# This is one part of the list.
# B1: CAA (Caragana arborescens) (protein)
# chain: VAVEFDTFDNPDWDPRTKHIGIDVNSIRSNKTTQWGFWNRQVADVDISYEASSKTLNVSLYYPGESYIVTDVVDLKDILPEWVRIGF
# Legend:
# Experiment in all cases: glycan array binding signal (z-score within array); higher = stronger binding
# Details in all cases: glycan notation: IUPAC condensed, linker removed
# [1] = target: GlcNAc(b1-4)GlcNAc(b1-4)GlcNAc(b1-4)GlcNAc(b1-4)GlcNAc
# Outline: (§1)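 From the Consortium for Functional Glycomics database, 3228 arrays were curated, keeping only those whose protein sequence was available. Binding is given as a within-array Z-score averaged across arrays sharing a protein sequence and across linkers. Negative Z-scores can be read as non-binding.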
# [2] = target: GlcNAc(b1-4)GlcNAc(b1-4)GlcNAc(b1-4)GlcNAc(b1-4)GlcNAc(b1-4)GlcNAc
# Outline: as §1
# [3] = target: GlcNAc(b1-4)[GlcNAc(b1-6)]GalNAc
# Outline: as §1
# [4] = target: GlcNAc(b1-6)Gal(b1-4)GlcNAc
# Outline: as §1
# GlcNAc(b1-6)GalNAc = target: GlcNAc(b1-6)GalNAc
# Outline: as §1
# [5] = target: GlcNAc6S(b1-3)Gal(b1-4)GlcNAc
# Outline: as §1
# Kdn(a2-3)Gal(b1-3)GalNAc = target: Kdn(a2-3)Gal(b1-3)GalNAc
# Outline: as §1
# Kdn(a2-3)Gal(b1-3)GlcNAc = target: Kdn(a2-3)Gal(b1-3)GlcNAc
# Outline: as §1
# Kdn(a2-3)Gal(b1-4)Glc = target: Kdn(a2-3)Gal(b1-4)Glc
# Outline: as §1
# Kdn(a2-3)Gal(b1-4)GlcNAc = target: Kdn(a2-3)Gal(b1-4)GlcNAc
# Outline: as §1
# [6] = target: Kdn(a2-3)Gal(b1-4)[Fuc(a1-3)]GlcNAc
# Outline: as §1
# Kdn(a2-6)Gal(b1-4)GlcNAc = target: Kdn(a2-6)Gal(b1-4)GlcNAc
# Outline: as §1
# [7] = target: Man(a1-2)Man(a1-2)Man(a1-3)Man
# Outline: as §1
# [8] = target: Man(a1-2)Man(a1-2)Man(a1-6)[Man(a1-3)]Man
# Outline: as §1
# Man(a1-2)Man(a1-3)Man = target: Man(a1-2)Man(a1-3)Man
# Outline: as §1
# [9] = target: Man(a1-2)Man(a1-3)[Man(a1-2)Man(a1-6)]Man
# Outline: as §1
# [10] = target: Man(a1-2)Man(a1-3)[Man(a1-2)Man(a1-6)]Man(a1-6)[Man(a1-2)Man(a1-2)Man(a1-3)]Man
# Outline: as §1
# [11] = target: Man(a1-2)Man(a1-3)[Man(a1-2)Man(a1-6)]Man(a1-6)[Man(a1-2)Man(a1-2)Man(a1-3)]Man(b1-4)GlcNAc(b1-4)GlcNAc
# Outline: as §1
# [12] = target: Man(a1-2)Man(a1-3)[Man(a1-6)]Man(a1-6)[Man(a1-2)Man(a1-3)]Man(b1-4)GlcNAc(b1-4)GlcNAc
# Outline: as §1
# [13] = target: Man(a1-2)Man(a1-6)[Man(a1-3)]Man(a1-6)[Man(a1-2)Man(a1-2)Man(a1-3)]Man
# Outline: as §1
# [14] = target: Man(a1-2)Man(a1-6)[Man(a1-3)]Man(a1-6)[Man(a1-2)Man(a1-2)Man(a1-3)]Man(b1-4)GlcNAc(b1-4)GlcNAc
# Outline: as §1
# Man(a1-3)[Man(a1-6)]Man = target: Man(a1-3)[Man(a1-6)]Man
# Outline: as §1
# [15] = target: Man(a1-3)[Man(a1-6)]Man(a1-6)[Man(a1-2)Man(a1-3)]Man(b1-4)GlcNAc(b1-4)GlcNAc
# Outline: as §1
# [16] = target: Man(a1-3)[Man(a1-6)]Man(a1-6)[Man(a1-3)]Man
# Outline: as §1
# [17] = target: Man(a1-3)[Man(a1-6)]Man(a1-6)[Man(a1-3)]Man(b1-4)GlcNAc(b1-4)GlcNAc
# Outline: as §1
# [18] = target: Man(a1-3)[Man(a1-6)]Man(b1-4)GlcNAc(b1-4)GlcNAc
# Outline: as §1
# [19] = target: Man(a1-3)[Man(a1-6)]Man(b1-4)GlcNAc(b1-4)[Fuc(a1-6)]GlcNAc
# Outline: as §1
# Man(a1-6)Man = target: Man(a1-6)Man
# Outline: as §1
# Man(b1-4)GlcNAc = target: Man(b1-4)GlcNAc
# Outline: as §1
# MurNAc(b1-4)GlcNAc = target: MurNAc(b1-4)GlcNAc
# Outline: as §1
# Neu5Ac(a2-3)Gal = target: Neu5Ac(a2-3)Gal
# Outline: as §1
# [20] = target: Neu5Ac(a2-3)Gal(b1-3)GalNAc
# Outline: as §1
# [21] = target: Neu5Ac(a2-3)Gal(b1-3)GalNAc(b1-3)Gal(a1-4)Gal(b1-4)Glc
# Outline: as §1
# [22] = target: Neu5Ac(a2-3)Gal(b1-3)GalNAc(b1-4)[Neu5Ac(a2-3)]Gal(b1-4)Glc
# Outline: as §1
# [23] = target: Neu5Ac(a2-3)Gal(b1-3)GalNAc(b1-4)[Neu5Ac(a2-8)Neu5Ac(a2-3)]Gal(b1-4)Glc
# Outline: as §1
# [24] = target: Neu5Ac(a2-3)Gal(b1-3)GalNAc6S
# Outline: as §1
# [25] = target: Neu5Ac(a2-3)Gal(b1-3)GlcNAc
# Outline: as §1
# [26] = target: Neu5Ac(a2-3)Gal(b1-3)GlcNAc(b1-2)Man
# Outline: as §1
# [27] = target: Neu5Ac(a2-3)Gal(b1-3)GlcNAc(b1-2)Man(a1-3)[GlcNAc(b1-4)][Neu5Ac(a2-3)Gal(b1-3)GlcNAc(b1-2)Man(a1-6)]Man(b1-4)GlcNAc(b1-4)GlcNAc
# Outline: as §1
# [28] = target: Neu5Ac(a2-3)Gal(b1-3)GlcNAc(b1-2)Man(a1-3)[Neu5Ac(a2-3)Gal(b1-3)GlcNAc(b1-2)Man(a1-6)]Man(b1-4)GlcNAc(b1-4)GlcNAc
# Outline: as §1
# [29] = target: Neu5Ac(a2-3)Gal(b1-3)GlcNAc(b1-3)Gal(b1-3)GlcNAc
# Outline: as §1
# [30] = target: Neu5Ac(a2-3)Gal(b1-3)GlcNAc(b1-3)Gal(b1-4)GlcNAc
# Outline: as §1
# [31] = target: Neu5Ac(a2-3)Gal(b1-3)GlcNAc(b1-3)GalNAc
# Outline: as §1
# [32] = target: Neu5Ac(a2-3)Gal(b1-3)GlcNAc(b1-4)Gal(b1-4)Glc
# Outline: as §1
# [33] = target: Neu5Ac(a2-3)Gal(b1-3)GlcNAc(b1-6)GalNAc
# Outline: as §1
binder,measurement,setting,value
B1,glycan array binding signal (z-score),[1],-0.236
same,glycan array binding signal (z-score),[2],-0.228
same,glycan array binding signal (z-score),[3],-0.241
same,glycan array binding signal (z-score),[4],-0.226
same,glycan array binding signal (z-score),GlcNAc(b1-6)GalNAc,-0.24
same,glycan array binding signal (z-score),[5],-0.236
same,glycan array binding signal (z-score),Kdn(a2-3)Gal(b1-3)GalNAc,-0.242
same,glycan array binding signal (z-score),Kdn(a2-3)Gal(b1-3)GlcNAc,-0.242
same,glycan array binding signal (z-score),Kdn(a2-3)Gal(b1-4)Glc,-0.237
same,glycan array binding signal (z-score),Kdn(a2-3)Gal(b1-4)GlcNAc,-0.246
same,glycan array binding signal (z-score),[6],-0.237
same,glycan array binding signal (z-score),Kdn(a2-6)Gal(b1-4)GlcNAc,-0.232
same,glycan array binding signal (z-score),[7],-0.24
same,glycan array binding signal (z-score),[8],-0.221
same,glycan array binding signal (z-score),Man(a1-2)Man(a1-3)Man,-0.247
same,glycan array binding signal (z-score),[9],-0.246
same,glycan array binding signal (z-score),[10],-0.246
same,glycan array binding signal (z-score),[11],-0.158
same,glycan array binding signal (z-score),[12],-0.236
same,glycan array binding signal (z-score),[13],-0.227
same,glycan array binding signal (z-score),[14],-0.179
same,glycan array binding signal (z-score),Man(a1-3)[Man(a1-6)]Man,-0.244
same,glycan array binding signal (z-score),[15],-0.145
same,glycan array binding signal (z-score),[16],-0.238
same,glycan array binding signal (z-score),[17],-0.221
same,glycan array binding signal (z-score),[18],0.544
same,glycan array binding signal (z-score),[19],0.457
same,glycan array binding signal (z-score),Man(a1-6)Man,-0.202
same,glycan array binding signal (z-score),Man(b1-4)GlcNAc,-0.201
same,glycan array binding signal (z-score),MurNAc(b1-4)GlcNAc,-0.245
same,glycan array binding signal (z-score),Neu5Ac(a2-3)Gal,-0.241
same,glycan array binding signal (z-score),[20],-0.244
same,glycan array binding signal (z-score),[21],-0.235
same,glycan array binding signal (z-score),[22],-0.233
same,glycan array binding signal (z-score),[23],-0.247
same,glycan array binding signal (z-score),[24],-0.243
same,glycan array binding signal (z-score),[25],-0.245
same,glycan array binding signal (z-score),[26],-0.219
same,glycan array binding signal (z-score),[27],-0.242
same,glycan array binding signal (z-score),[28],0.175
same,glycan array binding signal (z-score),[29],-0.241
same,glycan array binding signal (z-score),[30],-0.248
same,glycan array binding signal (z-score),[31],-0.246
same,glycan array binding signal (z-score),[32],-0.244
same,glycan array binding signal (z-score),[33],-0.245

# From the supplement of paper PMC8728848
